B1: tRNA (parent)
chain: CUCUCGGUAGCCAAGUUGGUUUAAGGCGCAAGACUUUAAUUUAUCACUACGAAAUCUUGAGAUCGGGCGUUCGACUCGCCCCCGGGAGAUUUUUUCCUCGAGCAA

The source of these data is the RNAGym collection of RNA variant scans (doi:10.1101/gad.245936.114).

Variants at the floor of the assay are shown more often than the library holds them.

The variants in this series derive from B1. The series is described as follows: nonsense suppression (GFP-seq) (ratio to wild type); higher = more function; SUP4oc tRNA, yeast GFP reporter sort-seq. An outline of the steps:
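Yeast carrying genome-integrated SUP4oc tRNA variants from a library with ~3% random mutations were grown in raffinose/galactose medium with 80 mg/L adenine. Each strain also carried a galactose-driven GFP ochre reporter and RFP. Cells were sorted into GFP/RFP bins, and each bin was Illumina-sequenced (phred ≥30). Nonsense suppression (GFPSEQ) is the bin median GFP/RFP, weighted by each variant's estimated cell share per bin, relative to wild-type SUP4oc; variants needed ≥100 reads and ≥30 cells.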
As to U55G G73U, the nonsense suppression is at most 0.026.

On to A9U A30G C56G G65A, for which the nonsense suppression is at most 0.026.

Consider G6A A14G, for which the nonsense suppression is at most 0.026.

Regarding G19U C29U C72G A89G, the nonsense suppression is at most 0.026.

Take G86U A87U: the nonsense suppression is at most 0.026.

Turning to U16A C34A C64U, the nonsense suppression is at most 0.026.

Take U16C C72A C77G G78U: the nonsense suppression is at most 0.026.

On to A9C A33G G88U, for which the nonsense suppression was at most 0.026.

As for U71G C72A, the nonsense suppression was at most 0.026.

On to A24G G78A C83A, for which the nonsense suppression is at most 0.026.

In the case of U2A G61U G78C, the nonsense suppression is at most 0.026.

Consider C1G G32C, for which the nonsense suppression was at most 0.026.

With U8A U16G G61U C82U G88C, the nonsense suppression was at most 0.026.

For U2C A60C, the nonsense suppression was found to be 0.0359.

For the variant G19U C29A U63C C72G, the nonsense suppression is at most 0.026.

For U8G C27G G28U A54C C81A, the nonsense suppression was at most 0.026.

For the variant G10U C81U, the nonsense suppression is at most 0.026.

Turning to U21C C81G, the nonsense suppression is at most 0.026.

In the case of A31U G66U, the nonsense suppression was at most 0.026.

With U4C G7A A14C U21C C80A, the nonsense suppression was at most 0.026.

For the variant A30U U70G A74G, the nonsense suppression was at most 0.026.

Take U16G G69A G86U A87C: the nonsense suppression was at most 0.026.

A14C C56G: the nonsense suppression is at most 0.026.

U58G A89U: the nonsense suppression was at most 0.026.

As to C34A A62C U63G G88C, the nonsense suppression is at most 0.026.

On to C5U G10A G73U, for which the nonsense suppression is at most 0.026.

With G67C G78C, the nonsense suppression was at most 0.026.

Regarding A24U U70G, the nonsense suppression is at most 0.026.

For U17G G59A C80A, the nonsense suppression was at most 0.026.

As for C1G G61C U63G C80A, the nonsense suppression was at most 0.026.

On to U2C C5G G10U G88A, for which the nonsense suppression was at most 0.026.

For C12A U57G G66C, the nonsense suppression is at most 0.026.

Turning to U8G C64G, the nonsense suppression was at most 0.026.

Consider C12A A14U A24G G61U A87C, for which the nonsense suppression was at most 0.026.

Take U16G A31U: the nonsense suppression is at most 0.026.

U2A G19A A74G: the nonsense suppression was at most 0.026.

Turning to U16A A23U, the nonsense suppression was at most 0.026.

Consider U71G U76G A89G, for which the nonsense suppression is at most 0.026.

As to U22A A74G C82A, the nonsense suppression was at most 0.026.

As to A13C C27G C77G, the nonsense suppression is at most 0.026.

As for C1A U35G G61U G69C C83U, the nonsense suppression is at most 0.026.

With U71C, the nonsense suppression was at most 0.026.

In the case of G19U C79U G84C, the nonsense suppression is at most 0.026.

On to U4C U35C G69C, for which the nonsense suppression was at most 0.026.

For the variant A54G A74U C75G, the nonsense suppression was at most 0.026.

C27A G59U G73C: the nonsense suppression was at most 0.026.

For U16C G18C A62C, the nonsense suppression was at most 0.026.

Turning to G26U A74C C82G, the nonsense suppression is at most 0.026.

Take C3A G69A: the nonsense suppression was at most 0.026.

With U57C G65C A74C, the nonsense suppression was at most 0.026.

As to U57G U71C G86U, the nonsense suppression was at most 0.026.

For A23U G26A U35G, the nonsense suppression was at most 0.026.

Take C34G U55G: the nonsense suppression is at most 0.026.

Turning to C11A U20G C29U G88A, the nonsense suppression was at most 0.026.

For the variant G15U A60U C81A, the nonsense suppression was at most 0.026.

For G25U G84A, the nonsense suppression was at most 0.026.

For the variant G6A C12G A13U, the nonsense suppression was at most 0.026.

Consider C11G C29A, for which the nonsense suppression is at most 0.026.

Consider G78A G84A, for which the nonsense suppression was determined as 0.459.

As to G10U G59U G69U, the nonsense suppression is at most 0.026.

C27U G28A U35A C83A: the nonsense suppression was at most 0.026.

Regarding A23C C29A G67C, the nonsense suppression was at most 0.026.

For C1G A9C G59C, the nonsense suppression is at most 0.026.

As to G59C G69C, the nonsense suppression was at most 0.026.

Regarding C27A C34G U57G, the nonsense suppression is at most 0.026.

Turning to C64A C72U, the nonsense suppression is at most 0.026.

For the variant C11G A54U C68U, the nonsense suppression is at most 0.026.

As to C75G A87C, the nonsense suppression is at most 0.026.

For the variant G18U A74C A87U, the nonsense suppression is at most 0.026.

Regarding G15C G88A, the nonsense suppression is at most 0.026.

Regarding G18C C27A A30G, the nonsense suppression is at most 0.026.

As to A9G G84C, the nonsense suppression was at most 0.026.

As to C5U C56G G69U, the nonsense suppression was at most 0.026.

As to C1A C82U G86A, the nonsense suppression is at most 0.026.

As for G6A G61U C80A, the nonsense suppression is at most 0.026.

For the variant A14C C27A, the nonsense suppression was at most 0.026.

As for C3U A87G, the nonsense suppression was at most 0.026.

As for C11G G15U, the nonsense suppression is at most 0.026.

On to G26U A33C, for which the nonsense suppression is at most 0.026.

For G26A A31G, the nonsense suppression is at most 0.026.

For A31G C34A, the nonsense suppression was at most 0.026.

A54G G61A U76C C77G: the nonsense suppression was at most 0.026.

For the variant C3A C29G, the nonsense suppression was at most 0.026.
